{
  "source": "the supplement of paper PMC8512760",
  "note": "Where a name gives a salt, the structure may show the parent alone. The list shows a part of the results. Single values are uncertain, as repeats are few or missing.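 Note: stably firefly luciferase-GFP labeled cells in 96-well plates, viability read as luciferase photon flux after d-luciferin addition, treated wells normalized to vehicle wells, single-dose high-throughput screen.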",
  "data": [
    {"test_system": "HCC-1143", "assay": "cell viability relative to vehicle (% of vehicle); basal-like triple-negative breast cancer lines; higher = less cytotoxic", "conditions": "10 µM; 72 h", "values": [
      {"compound": "O=C([O-])P(=O)([O-])[O-].[Na+].[Na+].[Na+]", "note": "[Foscarnet Sodium]", "cell viability": 99.6},
      {"compound": "CNC(=O)c1ccccc1Sc1ccc2c(C=Cc3ccccn3)n[nH]c2c1", "cell viability": 66.9},
      {"compound": "Nc1ccc(O)c(C(=O)O)c1", "note": "[Mesalamine]", "cell viability": 117},
      {"compound": "Cc1cccc(-c2nn3c(c2-c2ccnc4ccc(C(N)=O)cc24)CCC3)n1", "cell viability": 82.1},
      {"compound": "C[C@H]1COc2c(N3CCN(C)CC3)c(F)cc3c(=O)c(C(=O)O)cn1c23", "note": "[Levofloxacin]", "cell viability": 82.2},
      {"compound": "COc1cnc(NS(=O)(=O)c2ccc(N)cc2)nc1", "note": "[Sulfameter]", "cell viability": 75},
      {"compound": "Cl.NCCCC(N)(C(=O)O)C(F)F.O", "note": "(racemic) [DL-α-Difluoromethylornithine (hydrochloride hydrate)]", "cell viability": 64.1},
      {"compound": "CCc1cc(C(C)=NOCc2ccc(C3CCCCC3)c(C(F)(F)F)c2)ccc1CN1CC(C(=O)O)C1", "note": "[BAF312 (Siponimod)]", "cell viability": 74},
      {"compound": "CN1CCN(c2ccc3c(c2)NC(=C2C(=O)N=c4cccc(F)c4=C2N)N3)CC1", "note": "[Dovitinib (TKI-258, CHIR-258)]", "cell viability": 35.7},
      {"compound": "CNC(C)C1CCC(N)C(OC2C(N)CC(N)C(OC3OCC(C)(O)C(NC)C3O)C2O)O1.O=S(=O)(O)O", "note": "(stereo not drawn) [Gentamycin Sulfate]", "cell viability": 111},
      {"compound": "C=C1C(CO)C(O)CC1n1cnc2c(=O)nc(N)[nH]c21.O", "note": "(stereo not drawn) [Entecavir Hydrate]", "cell viability": 74.2},
      {"compound": "CN1CCN(c2ccc(C(=O)/N=c3\\[nH][nH]c4ccc(Cc5cc(F)cc(F)c5)cc34)c(NC3CCOCC3)c2)CC1", "note": "[Entrectinib]", "cell viability": 35.3},
      {"compound": "Cc1cccc(C)c1OCC(C)N.Cl", "note": "(stereo not drawn) [Mexiletine HCl]", "cell viability": 81},
      {"compound": "CCc1cccc2c3c([nH]c12)C(CC)(CC(=O)O)OCC3", "note": "(stereo not drawn) [Etodolac]", "cell viability": 87.4},
      {"compound": "Cc1cn(-c2cc(/N=C(\\O)c3ccc(C)c(Nc4nccc(-c5cnccn5)n4)c3)cc(C(F)(F)F)c2)cn1", "note": "[Radotinib(IY-5511)]", "cell viability": 77.7},
      {"compound": "CC(=O)SCC(Cc1ccccc1)C(=O)NCC(=O)OCc1ccccc1", "note": "(stereo not drawn) [Racecadotril]", "cell viability": 79.4},
      {"compound": "CC(C)=CCCC(C)=CCCC(C)=CCSc1ccccc1C(=O)O", "note": "[Salirasib]", "cell viability": 49.2},
      {"compound": "COC(=O)C=CC(=O)OC", "note": "[Dimethyl Fumarate]", "cell viability": 105},
      {"compound": "CCS(=O)(=O)CCn1c([N+](=O)[O-])cnc1C", "note": "[Tinidazole]", "cell viability": 98.3},
      {"compound": "Cc1cc(-n2c(=O)[nH]c(=O)n(C)c2=O)ccc1Oc1ccc(SC(F)(F)F)cc1", "note": "[Toltrazuril]", "cell viability": 95.3},
      {"compound": "CCCCCCCCCCCC1=C(O)C(=O)C=C(O)C1=O", "note": "[Embelin]", "cell viability": 56.2},
      {"compound": "CC(C)C(=O)Nc1ccc([N+](=O)[O-])c(C(F)(F)F)c1", "note": "[Flutamide]", "cell viability": 82},
      {"compound": "CC(C)n1c(C=CC(O)CC(O)CC(=O)[O-])c(-c2ccc(F)cc2)c2ccccc21.[Na+]", "note": "(stereo not drawn) [Fluvastatin Sodium]", "cell viability": 85.6},
      {"compound": "O=C(C1CCCCC1)N1CC(=O)N2CCc3ccccc3C2C1", "note": "(stereo not drawn) [Praziquantel]", "cell viability": 76.7},
      {"compound": "Cn1cnc2c(F)c(Nc3ccc(Br)cc3F)c(C(=O)NOCCO)cc21", "cell viability": 87.9},
      {"compound": "CC1OC(OCC2OC(Oc3c(-c4ccc(O)c(O)c4)oc4cc(O)cc(O)c4c3=O)C(O)C(O)C2O)C(O)C(O)C1O", "note": "(stereo not drawn) [Rutin]", "cell viability": 121},
      {"compound": "Cl.O=C1OC(CN2CCOCC2)CN1N=Cc1ccc([N+](=O)[O-])o1", "note": "(stereo not drawn) [Furaltadone HCl]", "cell viability": 64.8},
      {"compound": "COc1cc2nccc(Oc3ccc(NC(=O)NC4CC4)c(Cl)c3)c2cc1C(N)=O", "note": "[Lenvatinib (E7080)]", "cell viability": 74.9},
      {"compound": "O=C(O)c1cccnc1", "note": "[Nicotinic Acid]", "cell viability": 69},
      {"compound": "Nc1ccn(C2CCC(CO)O2)c(=O)n1", "note": "(stereo not drawn) [Zalcitabine]", "cell viability": 83.1},
      {"compound": "CCCNC(=O)NS(=O)(=O)c1ccc(Cl)cc1", "note": "[Chlorpropamide]", "cell viability": 69.4},
      {"compound": "Nc1ccn(CC(CO)OCP(=O)(O)O)c(=O)n1.O.O", "note": "(stereo not drawn) [Cidofovir dihydrate]", "cell viability": 91.8},
      {"compound": "CCC1OC(=O)C(C)C(OC2CC(C)(OC)C(O)C(C)O2)C(C)C(OC2OC(C)CC(N(C)C)C2O)C(C)(O)CC(C)C(=O)C(C)C(O)C1(C)O", "note": "(stereo not drawn) [Erythromycin]", "cell viability": 92.6}
    ]}
  ]
}
